{"source": "the supplement of paper PMC9446081", "note": "The whole screen tested about 39,000 compounds, of which about 220 (0.56%) showed activity. This is one part of the list.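 Note: static incubation at 37 °C against the wild-type strain, values averaged over two biological replicates.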", "data": [{"test_system": "Escherichia coli K-12 BW25113", "assay": "relative growth (OD600 normalised to plate interquartile mean) (fraction); higher = less growth inhibition, active = 0.2 or less", "details": "50 µM; LB; incubation time: overnight (16-24 h)", "values": [{"smiles": "C[C@@H]1CN([C@@H](C)CO)C(=O)c2cc(C#C[C@@H](C)O)cnc2O[C@H]1CN(C)C(=O)Nc1ccc(C(F)(F)F)cc1", "relative growth": "inactive: 0.995"}, {"smiles": "C[C@H](CO)N1C[C@H](C)[C@H](CN(C)CC2CC2)Oc2ccc(NS(=O)(=O)c3cccs3)cc2CC1=O", "relative growth": "inactive: 0.971"}, {"smiles": "C[C@@H]1CCCCO[C@H](CN(C)Cc2ccncc2)[C@H](C)CN([C@H](C)CO)C(=O)c2cc(NC(=O)Nc3cccc4ccccc34)ccc2O1", "relative growth": "inactive: 0.995"}, {"smiles": "COc1ccc(S(=O)(=O)Nc2ccc3c(c2)CC(=O)N([C@@H](C)CO)C[C@H](C)[C@H](CN(C)S(=O)(=O)c2c(C)noc2C)O3)cc1", "relative growth": "inactive: 0.996"}, {"smiles": "CCCNC(=O)C[C@@H]1CC[C@@H]2[C@H](COc3ccc(NS(=O)(=O)c4ccccc4C)cc3C(=O)N2C)O1", "relative growth": "inactive: 0.985"}, {"smiles": "CN(C)CC(=O)N[C@@H]1CC[C@@H](CC(=O)NCCN2CCCCC2)O[C@H]1CO", "relative growth": "inactive: 0.964"}, {"smiles": "O=[N+]([O-])c1ccc(NCCNCCO)cc1", "relative growth": "inactive: 0.984"}, {"smiles": "C/C=C(\\C(C)=N\\O)c1ccccc1", "relative growth": "inactive: 1.01"}, {"smiles": "CN1CCN(C(=O)C[C@H]2C=C[C@H](NC(=O)Nc3ccccc3F)[C@H](CO)O2)CC1", "relative growth": "inactive: 0.892"}, {"smiles": "COc1ccc(NC(=O)N(C)C[C@H]2OCc3cnnn3CCCC(=O)N([C@H](C)CO)C[C@H]2C)c(OC)c1", "relative growth": "inactive: 0.981"}, {"smiles": "CNC[C@H]1OCCCC[C@H](C)Oc2ccc(NS(=O)(=O)c3cn(C)cn3)cc2C(=O)N([C@@H](C)CO)C[C@@H]1C", "relative growth": "inactive: 0.948"}, {"smiles": "Cc1ccc(S[C@]2(C(=O)NCc3ccccc3)CC(=O)N(Cc3ccccc3)[C@@H]2c2ccc(COC(=O)NCCCCCC(=O)NO)cc2I)cc1", "relative growth": "inactive: 1.06"}, {"smiles": "O=C(C[C@H]1C[C@H]2c3cc(NS(=O)(=O)c4ccc(F)cc4)ccc3O[C@H]2[C@@H](CO)O1)NC1CCCC1", "relative growth": "inactive: 1.01"}, {"smiles": "C[C@@H]1CCCCO[C@H](CN(C)C(=O)NC2CCCCC2)[C@H](C)CN([C@H](C)CO)C(=O)c2cc(NC(=O)C3CCCCC3)ccc2O1", "relative growth": "inactive: 1.02"}, {"smiles": "COCC#Cc1cnc2c(c1)C(=O)N([C@@H](C)CO)C[C@H](C)[C@H](CN(C)C(=O)c1ccc3c(c1)OCO3)O2", "relative growth": "inactive: 0.996"}, {"smiles": "C[C@@H]1CCCCO[C@@H](CN(C)Cc2ccc3c(c2)OCO3)[C@@H](C)CN([C@@H](C)CO)C(=O)c2cc(NC(=O)Nc3ccc(C(F)(F)F)cc3)ccc2O1", "relative growth": "inactive: 1.01"}, {"smiles": "Oc1ccc([C@H]2CNCCN2)cc1", "relative growth": "inactive: 0.933"}, {"smiles": "C[C@@H]1CN([C@H](C)CO)C(=O)c2cc(NC(=O)CCC(F)(F)F)ccc2O[C@@H](C)CCCCO[C@H]1CN(C)C(=O)NC1CCCCC1", "relative growth": "inactive: 1.02"}]}]}
